Experimental data as given in PubChem BioAssay.
Inconclusive means that the source gave no clear call. Such entries were picked first, then a sample of the others. Calls of active or inactive are those of the source.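 The calls were made as follows, unless noted: active = viability at or below 27.92% in each of two runs, the all-compound median minus 4 SD; inconclusive = no clear call, values can overlap the other calls; inactive = the rest.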

assay: growth suppression of beta-catenin knockout HCT116, pilot screen, human colon tumor cells (AID 823;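 active = cell viability at or below a set limit in both duplicate runs, the limit being the all-compound median minus 4 SD, cut at about 23% in these data, passing the limit was not always enough; inconclusive = no clear call, values can overlap the other calls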;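 also: 0% = wells killed by 20 µM Hyamine and 100% = untreated DMSO cell wells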); conditions: CellTiter-Glo, 60 h, at 10 µM, active compounds read low

Row | SMILES | viability
1 | COc1cc(CC2C(=O)N(C)C(=O)N(C)C2=O)ccc1OCc1ccccc1 | inactive: 96.9%
2 | Cc1c(C(=O)N2CCC3(CC2)OCCO3)oc2ccc(S(=O)(=O)N3CCOCC3)cc12 | inconclusive: 95.5%
3 | COc1cccc(N2C(=O)CC(=O)NC2=O)c1 | inconclusive: 109%
4 | CN1CSC(=S)N(C)C1 | active: 13.9%
5 | CCc1sc(C(=O)N2CCC3(CC2)OCCO3)cc1Br | inconclusive: 99.6%
6 | CCCCCCn1c(=O)c(C(=O)Nc2ccncc2)c(O)c2ccccc21 | inconclusive: 28.1%
7 | CN1CCN(CCC(C#N)(c2ccccc2)c2ccccc2)CC1 | inactive: 87%
8 | COc1ccc(C2C(C(=O)N3CCC4(CC3)OCCO4)CC(=O)N2c2ccc(OC)cc2)cc1 (stereo not drawn) | inconclusive: 96.5%
9 | COCCOC(=O)C1=C(N)OC(C)=C(C(=O)OC)C12C(=O)Nc1ccccc12 (stereo not drawn) | inconclusive: 91.3%
10 | COC(=NC1CCCC1)C(O)c1c[nH]c2ccccc12 (stereo not drawn) | inconclusive: 83.3%
11 | COc1cc2c(cc1OC)C(C(=O)N1CCC3(CC1)OCCO3)C(c1ccccc1F)N(C)C2=O (stereo not drawn) | inconclusive: 90.2%
12 | CC1(C)CN=C(Nc2ccc(F)c(F)c2)S1 | inactive: 111%
13 | O=C(CN1CC(c2ccccc2)CC1=O)Nc1ccccc1 (stereo not drawn) | inactive: 106%
14 | O=C(Cc1ccc(Br)cc1)N1CCN(Cc2ccccc2)CC1 | inconclusive: 77.7%
15 | c1ccc2c(CN3CCCCCCC3)c[nH]c2c1 | inactive: 62.3%

assay: growth suppression of PTEN-deleted HCT116, pilot screen, cell-based, HCT116 clonal line, CellTiter-Glo (AID 824); conditions: 60 h, at 10 µM, active compounds read low;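 also: 0% = 20 µM Hyamine control and 100% = vehicle cell control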

Row | SMILES | viability
16 | Cc1cc(OCC(=O)NC2CCS(=O)(=O)C2)c2c3c(c(=O)oc2c1)CCC3 (stereo not drawn) | inconclusive: 80.1%
17 | CCOC(=O)c1cncn1C(C)c1ccccc1 (stereo not drawn) | inconclusive: 102%
18 | CN1CCN(C(=O)COc2ccc(-c3nc4ccccc4s3)cc2)CC1 | inconclusive: 78.5%
19 | CCOc1ccc(C2SCC(=O)Nc3c2c(=O)[nH]n3C2CCCCCC2)cc1 (stereo not drawn) | inconclusive: 89.2%
20 | CCOC(=O)C1SC2(C(F)(F)C(F)F)CC1(O)c1c(c(OC)c3occc3c1OC)O2 (stereo not drawn) | inactive: 86.9%
21 | CCCOc1ccccc1C1SCC(=O)Nc2c1c(=O)[nH]n2C(C)CCC (stereo not drawn) | inconclusive: 95.3%
22 | COc1cccc(N2C(=O)CC(=O)NC2=O)c1 | inactive: 108%
23 | CN1CSC(=S)N(C)C1 | active: 19.6%
24 | CC1(C)CC(n2[nH]c(=O)c3c2NC(=O)CSC3c2ccc(F)cc2)CCO1 (stereo not drawn) | inconclusive: 87.4%
25 | CCCCCCn1c(=O)c(C(=O)Nc2ccncc2)c(O)c2ccccc21 | inconclusive: 25.3%
26 | CN1CCN(CCC(C#N)(c2ccccc2)c2ccccc2)CC1 | inconclusive: 91.5%
27 | O=C(CN1CCOCC1)c1ccc2cc[nH]c2c1 | inactive: 108%
28 | COc1cc(C2SCC(=O)Nc3c2c(=O)[nH]n3C2CCCCCC2)cc(OC)c1OC (stereo not drawn) | inconclusive: 94.3%
29 | CN(C)C(=O)Oc1ccc(OC(=O)N(C)C)cc1 | inactive: 99.5%
30 | COCCOC(=O)C1=C(N)OC(C)=C(C(=O)OC)C12C(=O)Nc1ccccc12 (stereo not drawn) | inactive: 93%
31 | COC(=NC1CCCC1)C(O)c1c[nH]c2ccccc12 (stereo not drawn) | inactive: 81.2%
32 | CC1(C)Cc2c(sc3c2C(=O)NC(c2cccnc2)N3)CO1 (stereo not drawn) | inconclusive: 103%
33 | Cc1nn(C2CCOC(C)(C)C2)c2c1C(c1ccc3c(c1)OCO3)SCC(=O)N2 (stereo not drawn) | inconclusive: 94.1%
34 | COc1ccc(C2SCC(=O)Nc3c2c(=O)[nH]n3C2CCCCCC2)cc1OC (stereo not drawn) | inconclusive: 94.5%
35 | Cc1nc2ccc(Cl)cn2c1P(=S)(N1CCOCC1)N1CCOCC1 | inconclusive: 97.8%
36 | FC(F)(F)/C(=N\P(=S)(N1CCOCC1)N1CCOCC1)N1CCOCC1 | inconclusive: 92.5%
37 | c1ccc2c(CN3CCCCCCC3)c[nH]c2c1 | inactive: 67.8%
38 | CN1CCN(c2ccc(NC(=O)C(C)(C)C)cc2)CC1 | inconclusive: 93.3%
